Results as given in PubChem BioAssay AID588855 (National Center for Advancing Translational Sciences (NCATS), 2011).
The whole screen tested about 410,000 compounds, of which about 5,000 (1.2%) were called active. The shares of active, inactive and inconclusive entries below differ from those in the screen. Calls come from the whole dose curve; as a rule, active = well fitted inhibition curve with a large enough effect; inconclusive = small, poorly fitted or top-dose-only effect; inactive = no such curve, though single readings can be large or run the other way. A potency beside an inconclusive call is a rough fit, not a confirmed value.
Potency is the fitted concentration of half-maximal effect; tags give direction and shape of the fitted curve.

Assay: qHTS for Inhibitors of TGF-b; note: nearly all actives have a fitted effect of over 65% in size
Conditions: HepG2 CAGA-GFP TGF-b/SMAD3 reporter, GFP fluorescence, 18 h, TGF-beta stimulated, 500 pg/mL final; series mostly up to 46.1 µM
In short: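 Inhibition was scored as loss of TGF-beta-induced (500 pg/mL final, 18 hours, 37 degrees C) GFP in HEPG2 cells carrying a CAGA-GFP reporter, in DMEM with 1% FBS. Well GFP was summed per cell; Activity was normalised to unstimulated and stimulated DMSO wells, then concentration-response fitting.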
With O=C(Nc1cccc(S(=O)(=O)N2CCCCCC2)c1)c1cc(=O)c2ccccc2o1 the Potency was inconclusive: 35.5 µM [inhibitor, single point].
In the case of O=C(COC(=O)C1COc2ccccc2O1)Nc1ccc2c(c1)CCC2 (centres undefined), the Potency is reported as inconclusive: 0.282 µM [inhibitor, full curve, poor fit].
In the case of CCOc1ccc(CSC(=N)N)cc1[N+](=O)[O-], the Potency is reported as “inactive”.
In the case of Cc1ccccc1NC(=O)CN1C(=O)C2C3CC(C(Br)C3Br)C2C1=O (centres undefined), the Potency is reported as “inactive”.
For C=CC[C@@H](CC(=O)N[C@H](CO)Cc1ccccc1)C(=O)N[C@H](COC(=O)[C@@H](CC=C)Cc1ccc(F)cc1)C(C)(C)C, the Potency was inconclusive: 35.5 µM [inhibitor, single point].
With CCc1cccc2c(C(=O)CN3C(=O)N(C)C4(CCCCC4)C3=O)c[nH]c12 the Potency was inconclusive: 35.5 µM [inhibitor, single point].
For Cc1cccc(NS(=O)(=O)c2cccc(C(=O)N3CCN(c4ccccn4)CC3)c2)c1, the Potency was inconclusive: 11.2 µM [inhibitor, single point].
With C[C@H](O)[C@@H]1CN2CCc3c([nH]c4ccccc34)[C@@H]2C[C@@H]1N(C)C(=O)Nc1ccccc1 the Potency was inconclusive: 3.16 µM [inhibitor, single point].
For COc1ccc(-c2ccc3[nH]c4c(c3c2)CCN2C[C@@H]([C@H](C)O)[C@@H](N(C)C(=O)Nc3cc(Cl)cc(Cl)c3)C[C@@H]42)cc1, the Potency was inconclusive: 22.4 µM [inhibitor, single point].
For O=C(Nc1ccc(C(F)(F)F)cc1)C1CCN(S(=O)(=O)c2ccc(N3CCCC3=O)cc2)CC1, the Potency was inconclusive: 2.24 µM [inhibitor, partial curve, poor fit].
For COc1ccc(Cl)cc1C(=O)NCC(c1ccco1)N1CCCC1 (centres undefined), the Potency was inconclusive: 3.55 µM [inhibitor, full curve].
In the case of c1ccc2c(C[C@@H]3CNCCN3CCCCC3CCCCC3)cccc2c1, the Potency is reported as inconclusive: 35.5 µM [inhibitor, single point].
For CCOc1ccc(-c2n[nH]c3c2C(c2cccs2)N(c2ccc(Br)cc2)C3=O)cc1 (centres undefined), the Potency was active: 6.31 µM.
With COc1cccc(C2C=C(c3ccc(C)cc3)Nc3c(C(=O)Nc4ccc(F)cc4)cnn32)c1OC (centres undefined) the Potency was inconclusive: 3.98 µM [inhibitor, full curve, poor fit].
With Cn1cc(C(=O)c2ccc(Cl)cc2Cl)cc1C=O the Potency was inconclusive: 0.562 µM [inhibitor, partial curve, poor fit].
For S=C(Nc1ccc(Br)cc1Cl)NC1CCN(Cc2ccccc2)CC1, the Potency was inconclusive: 20 µM [inhibitor, single point].
With CC1=C(C#N)c2nc(N)c(C#N)c(C)c2/C1=C\c1ccc(-c2ccccc2C(=O)O)o1 the Potency was “inactive”.
In the case of CC(=O)NC(c1ccc(F)c(F)c1)c1nc(-c2ccncc2)cs1 (centres undefined), the Potency is reported as inconclusive: 3.55 µM [inhibitor, single point].
With CC(C)(C)c1cc(CNC2CS(=O)(=O)C[C@@H]2O)cc(C(C)(C)C)c1O (some centres undefined) the Potency was “inactive”.
With CCCN(CC(=O)Nc1ccccc1Br)CC(=O)Nc1ccc(F)c(F)c1F the Potency was inconclusive: 25.1 µM [inhibitor, single point].
In the case of N#C/C(=C(/O)c1ccc2c(c1)OCO2)c1nc2cc(C(F)(F)F)ccc2s1, the Potency is reported as inconclusive: 2.51 µM [inhibitor, full curve].
In the case of Cn1cnnc1SCC(=O)Nc1ccc(N2CCOCC2)cc1, the Potency is reported as inconclusive: 3.98 µM [inhibitor, single point].
With COc1ccc(CN(C(=O)c2ccc(OCC(C)C)cc2)C2CCS(=O)(=O)C2)cc1 (centres undefined) the Potency was “inactive”.
In the case of CCN(Cc1ccccc1)C(=O)c1cccc(OC2CCN(C(=O)C3CC3)CC2)c1, the Potency is reported as inconclusive: 35.5 µM [inhibitor, single point].
With N#Cc1ccc(NC(=O)COC(=O)c2cccnc2Cl)cc1 the Potency was inconclusive: 0.447 µM [inhibitor, full curve].
In the case of Nc1ccc2nc(-c3ccc(Cl)cc3)[nH]c2c1, the Potency is reported as inconclusive: 22.4 µM [inhibitor, single point].
For C#CCNC(=O)C1=C[C@@H](c2coc3ccccc3c2=O)C[C@@H](OCc2ccc(CO)cc2)O1, the Potency was inconclusive: 6.31 µM [inhibitor, full curve, poor fit].
In the case of CCOC(=O)N1CCc2c(sc(NCc3ccc(N(C)C)cc3)c2C(=O)Nc2ccccc2OCC)C1, the Potency is reported as “inactive”.
With CC(C)n1cc(CN2CCCC(C(=O)Nc3cccc(-c4cc5ccccc5[nH]4)c3)C2)cn1 (centres undefined) the Potency was inconclusive: 22.4 µM [inhibitor, single point].
With COc1ccccc1NCC(O)Cn1c2ccccc2c2ccccc21 (centres undefined) the Potency was active: 12.6 µM.
In the case of CCOC(=O)C(C)N1C(=O)S/C(=C/c2cc(C)n(-c3ccncc3)c2C)C1=O (centres undefined), the Potency is reported as inconclusive: 22.4 µM [inhibitor, single point].
For O=C(CCc1ccccc1)NC1(Cc2ccccc2)CCN(CCc2cccs2)C1=O (centres undefined), the Potency was inconclusive: 11.2 µM [inhibitor, partial curve, poor fit].
With Cc1ccc(SCC(=O)NNC(=O)C2CCCCC2)cc1 the Potency was inconclusive: 3.16 µM [inhibitor, single point].
With CN1CCC(N(C)CC(=O)Nc2cccc(Oc3ccccc3)c2)CC1 the Potency was inconclusive: 3.98 µM [inhibitor, single point].
For CN1CCN(c2ccc(-c3cc(NC=O)c4ncc(-c5ccc(F)cc5)n4c3)cc2)CC1, the Potency was inconclusive: 5.01 µM [inhibitor, partial curve, poor fit].
With O=C(c1ccccc1)N1N=C(c2ccccc2O)CC1c1ccccc1 (centres undefined) the Potency was inconclusive: 17.8 µM [inhibitor, partial curve, poor fit].
For CCCCN(C)c1nc(-c2ccco2)c2c(c1C#N)CC(C)(C)OC2, the Potency was inconclusive: 25.1 µM [inhibitor, single point].
In the case of COc1ccc(CNC(=O)c2ccc(-c3nc(CSc4ccccc4)c(C)o3)cc2)cc1, the Potency is reported as inconclusive: 12.6 µM [inhibitor, partial curve, poor fit].
For COc1cccc(/C=N/Nc2cc(N3CCOCC3)ncn2)c1O, the Potency was inconclusive: 20 µM [inhibitor, single point].
